Measurements as given in a collection of fitness landscapes (doi:10.1126/science.1257360).
The list shows a part of the results.

B1: PhoQ; a variant is named by its letters at X, in order, P23837 (parent)
chain: MKKLLRLFFPLSLRVRFLLATAAVVLVLSLAYGMVALIGYSVSFDKTTFRLLRGESNLFYTLAKWENNKLHVELPENIDKQSPTMTLIYDENGQLLWAQRDVPWLMKMIQPDWLKSNGFHEIEADVNDTSLLLSGDHSIQQQLQEVREDDDDAEMTHSVAVNVYPATSRMPKLTIVVVDTIPVELKSSYMVWSWFIYVLSANLLLVIPLLWVAAWWSLRPIEALAKEVRELEEHNRELLNPATTRELTSLVRNLNRLLKSERERYDKYRTTLTDLTHSLKTPLXXLQXXLRSLRSEKMSVSDAEPVMLEQISRISQQIGYYLHRASMRGGTLLSRELHPVAPLLDNLTSALNKVYQRKGVNISLDISPEISFVGEQNDFVEVMGNVLDNACKYCLEFVEISARQTDEHLYIVVEDDGPGIPLSKREVIFDRGQRVDTLRPGQGVGLAVAREITEQYEGKIVAGESMLGGARMEVIFGRQHSAPKDE

Variants of: B1
Experiment: enrichment ratio after two sorts for PhoP signalling (ratio (wild type AVST 3.29)); higher = more functional
Details: with PhoP (E. coli)

Variant | enrichment ratio
QPHP | ≤ 0.25
IRWR | ≤ 0.25
VGDD | ≤ 0.25
GTRI | ≤ 0.25
FIGT | ≤ 0.25
TGVH | 1.88
HNHS | ≤ 0.25
WLMK | ≤ 0.25
RVPD | ≤ 0.25
YRMM | ≤ 0.25
KNLF | ≤ 0.25
ATII | 7.4
YAVH | ≤ 0.25
HVWL | ≤ 0.25
YRYI | ≤ 0.25
QFRK | ≤ 0.25
AERA | ≤ 0.25
LEIF | ≤ 0.25
IQQN | ≤ 0.25
VFWK | ≤ 0.25
TSHC | 10
AHCE | ≤ 0.25
DHTR | ≤ 0.25
DISC | ≤ 0.25
HFSY | ≤ 0.25
TTTQ | 4.04

Variant | enrichment ratio
VTNR | ≤ 0.25
RIDS | ≤ 0.25
VRPV | ≤ 0.25
DPGE | ≤ 0.25
YEWW | ≤ 0.25
PWLT | ≤ 0.25
WFVS | ≤ 0.25
VTDQ | ≤ 0.25
HIYY | ≤ 0.25
AKLM | 12.4
APLE | ≤ 0.25
EHCL | ≤ 0.25
QTYQ | 4.58
NASF | ≤ 0.25
LPNL | ≤ 0.25
IMAQ | ≤ 0.25
YHEP | ≤ 0.25
ILPA | ≤ 0.25
TYIH | ≤ 0.25
DMPP | ≤ 0.25
GREC | ≤ 0.25
DGAK | ≤ 0.25
RYGV | ≤ 0.25
NPHN | ≤ 0.25
KALD | ≤ 0.25
HDHR | ≤ 0.25

Variant | enrichment ratio
PTDK | ≤ 0.25
QEFQ | ≤ 0.25
LSFF | 0.737
WLRF | ≤ 0.25
MDKF | ≤ 0.25
RILH | ≤ 0.25
LSND | ≤ 0.25
GLAH | ≤ 0.25
DQAI | 5.63
FKQK | ≤ 0.25
TTPA | ≤ 0.25
GEVS | 7.86
GHLC | ≤ 0.25
TFKM | ≤ 0.25
QSTN | ≤ 0.25
YYYH | ≤ 0.25
NQHM | ≤ 0.25
PGCT | ≤ 0.25
RAWW | ≤ 0.25
DIHY | ≤ 0.25
TYHC | ≤ 0.25
FIFY | ≤ 0.25
RGGE | ≤ 0.25
YREL | ≤ 0.25
